This is one part of the list. Most values come without repeats; read them as rough.
How the values were obtained:
Assay in all cases: cell count relative to DMSO control; melanoma cells; higher = more viable cells
Details in all cases: library dose: standard library concentration; 72 h
G361 = test system: G361
IPC-298 = test system: IPC-298
IST-MEL1 = test system: IST-MEL1
LB2518-MEL = test system: LB2518-MEL
LOXIMVI = test system: LOXIMVI
MEL-HO = test system: MEL-HO
MZ2-MEL = test system: MZ2-MEL
MeWo = test system: MeWo
RPMI7951 = test system: RPMI7951
RVH-421 = test system: RVH-421
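Further: cells treated in 1,536-well plates, then fixed and DAPI-stained, with nuclei counted from automated high-throughput microscope images.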

Cn1c(=O)n(-c2ccc(C(C)(C)C#N)cc2)c2c3cc(-c4cnc5ccccc5c4)ccc3ncc21 + CCCS(=O)(=O)Nc1ccc(F)c(C(=O)c2c[nH]c3ncc(Cl)cc23)c1F [PLX4720] (first compound 0.02 µM, partner dose 0.4 µM)
cell count (G361): 46%
cell count (IPC-298): 65.6%
cell count (IST-MEL1): 87.1%
cell count (LB2518-MEL): 84.4%
cell count (LOXIMVI): 84.1%
cell count (MEL-HO): 61.9%
cell count (MZ2-MEL): 68.8%
cell count (MeWo): 80.2%
cell count (RPMI7951): 66.2%
cell count (RVH-421): 74.5%

CC(C)C[C@H](NC(=O)[C@H](Cc1ccccc1)NC(=O)c1cnccn1)B(O)O [Bortezomib] + CN1CCN(c2ccc3nc(-c4c(N)c5c(F)cccc5[nH]c4=O)[nH]c3c2)CC1 [Dovitinib] (first compound 0.005 µM, partner dose 0.5 µM)
cell count (G361): 0.293%
cell count (IPC-298): 12.3%
cell count (IST-MEL1): 5.66%
cell count (LB2518-MEL): 2.48%
cell count (LOXIMVI): 29.8%
cell count (MEL-HO): 20.2%
cell count (MZ2-MEL): 4.84%
cell count (MeWo): 14.2%
cell count (RPMI7951): 2.73%
cell count (RVH-421): 113%

COc1ccc(C2=N[C@@H](c3ccc(Cl)cc3)[C@@H](c3ccc(Cl)cc3)N2C(=O)N2CCNC(=O)C2)c(OC(C)C)c1 [Nutlin-3] + COc1ccc2c(c1)CCC1C2CCC2(C)C(NCCCCCCN3C(=O)C=CC3=O)CCC12 [U73122] (first compound 0.5 µM, partner dose 2 µM)
cell count (G361): 68.1%
cell count (IPC-298): 102%
cell count (IST-MEL1): 78.8%
cell count (LB2518-MEL): 90.5%
cell count (LOXIMVI): 88.4%
cell count (MEL-HO): 90.6%
cell count (MZ2-MEL): 106%
cell count (MeWo): 62.9%
cell count (RPMI7951): 36.9%
cell count (RVH-421): 76.3%

COc1ccc(C2=N[C@@H](c3ccc(Cl)cc3)[C@@H](c3ccc(Cl)cc3)N2C(=O)N2CCNC(=O)C2)c(OC(C)C)c1 [Nutlin-3] + Nc1ncn([C@H]2C[C@H](O)[C@@H](CO)O2)c(=O)n1 [decitabine] (first compound 0.5 µM, partner dose 0.5 µM)
cell count (G361): 64.2%
cell count (IPC-298): 60.9%
cell count (IST-MEL1): 74.6%
cell count (LB2518-MEL): 73.4%
cell count (LOXIMVI): 49.5%
cell count (MEL-HO): 71.3%
cell count (MZ2-MEL): 76.7%
cell count (MeWo): 75.2%
cell count (RPMI7951): 79.1%
cell count (RVH-421): 57.3%

COc1ccc(C2=N[C@@H](c3ccc(Cl)cc3)[C@@H](c3ccc(Cl)cc3)N2C(=O)N2CCNC(=O)C2)c(OC(C)C)c1 [Nutlin-3] + O=C(O)c1ccc(-c2c[nH]c3ncc(-c4ccccc4)cc23)cc1C1CCCC1 [GSK650394] (first compound 0.5 µM, partner dose 0.8 µM)
cell count (G361): 56.6%
cell count (IPC-298): 89.8%
cell count (IST-MEL1): 74%
cell count (LB2518-MEL): 66.4%
cell count (LOXIMVI): 72.7%
cell count (MEL-HO): 71.3%
cell count (MZ2-MEL): 88.1%
cell count (MeWo): 93.1%
cell count (RPMI7951): 85.6%
cell count (RVH-421): 55.7%

Cc1cn(-c2cc(NC(=O)c3ccc(C)c(Nc4nccc(-c5cccnc5)n4)c3)cc(C(F)(F)F)c2)cn1 [nilotinib] + CC(C)C[C@H](NC(=O)[C@H](Cc1ccccc1)NC(=O)c1cnccn1)B(O)O [Bortezomib] (first compound 1 µM, partner dose 0.005 µM)
cell count (G361): 1.26%
cell count (IPC-298): 7.51%
cell count (IST-MEL1): 5.78%
cell count (LB2518-MEL): 7.25%
cell count (LOXIMVI): 23.5%
cell count (MEL-HO): 34.9%
cell count (MZ2-MEL): 6.62%
cell count (MeWo): 10.9%
cell count (RPMI7951): 2.13%
cell count (RVH-421): 11.4%

COc1ccc(C2=N[C@@H](c3ccc(Cl)cc3)[C@@H](c3ccc(Cl)cc3)N2C(=O)N2CCNC(=O)C2)c(OC(C)C)c1 [Nutlin-3] + COc1ccc(-c2ccc3c(N4CCOCC4)nc(N4C[C@@H](C)O[C@@H](C)C4)nc3n2)cc1CO [KU0063794] (first compound 0.5 µM, partner dose 0.1 µM)
cell count (G361): 59.1%
cell count (IPC-298): 58.4%
cell count (IST-MEL1): 95.9%
cell count (LB2518-MEL): 68.9%
cell count (LOXIMVI): 77.4%
cell count (MEL-HO): 78.1%
cell count (MZ2-MEL): 78.7%
cell count (MeWo): 63.8%
cell count (RPMI7951): 79.7%
cell count (RVH-421): 59.6%

Cc1cc(Nc2cc(N3CCN(C)CC3)nc(/C=C/c3ccccc3)n2)n[nH]1 + Cn1cc(/C=C2\C(=O)Nc3cccnc32)c2ccccc21 [GW441756] (first compound 0.2 µM, partner dose 2 µM)
cell count (G361): 74.3%
cell count (IPC-298): 78.1%
cell count (IST-MEL1): 93.7%
cell count (LB2518-MEL): 74.3%
cell count (LOXIMVI): 87.5%
cell count (MEL-HO): 84.9%
cell count (MZ2-MEL): 71.1%
cell count (MeWo): 72%
cell count (RPMI7951): 70.5%
cell count (RVH-421): 71.8%

Cn1c(=O)n(-c2ccc(C(C)(C)C#N)cc2)c2c3cc(-c4cnc5ccccc5c4)ccc3ncc21 + Oc1cc(-c2nc(-c3ccccc3)[nH]c2-c2ccncc2)ccc1Cl [L779450] (first compound 0.02 µM, partner dose 1 µM)
cell count (G361): 29.9%
cell count (IPC-298): 67.3%
cell count (IST-MEL1): 61.7%
cell count (LB2518-MEL): 96.5%
cell count (LOXIMVI): 82.4%
cell count (MEL-HO): 48.7%
cell count (MZ2-MEL): 71.9%
cell count (MeWo): 55.5%
cell count (RPMI7951): 52.4%
cell count (RVH-421): 71.2%

Cc1cc(Nc2cc(N3CCN(C)CC3)nc(/C=C/c3ccccc3)n2)n[nH]1 + Clc1ccc(Nc2nnc(Cc3ccncc3)c3ccccc23)cc1 [vatalanib] (first compound 0.2 µM, partner dose 10 µM)
cell count (G361): 57%
cell count (IPC-298): 67.1%
cell count (IST-MEL1): 69.8%
cell count (LB2518-MEL): 62.2%
cell count (LOXIMVI): 63.6%
cell count (MEL-HO): 63.5%
cell count (MZ2-MEL): 65.1%
cell count (MeWo): 73%
cell count (RPMI7951): 50.6%
cell count (RVH-421): 47.6%

Cn1c(=O)n(-c2ccc(C(C)(C)C#N)cc2)c2c3cc(-c4cnc5ccccc5c4)ccc3ncc21 + Cn1cncc1[C@@](N)(c1ccc(Cl)cc1)c1ccc2c(c1)c(-c1cccc(Cl)c1)cc(=O)n2C [tipifarnib] (first compound 0.02 µM, partner dose 0.05 µM)
cell count (G361): 42.1%
cell count (IPC-298): 74.9%
cell count (IST-MEL1): 58.9%
cell count (LB2518-MEL): 74%
cell count (LOXIMVI): 65%
cell count (MEL-HO): 62.6%
cell count (MZ2-MEL): 77.9%
cell count (MeWo): 64.2%
cell count (RPMI7951): 67.8%
cell count (RVH-421): 63.5%

Cc1cn(-c2cc(NC(=O)c3ccc(C)c(Nc4nccc(-c5cccnc5)n4)c3)cc(C(F)(F)F)c2)cn1 [nilotinib] + NCC(=O)Nc1ccc(-n2nc(C(F)(F)F)cc2-c2ccc3c(ccc4ccccc43)c2)cc1 [OSU03012] (first compound 1 µM, partner dose 5 µM)
cell count (G361): 54.5%
cell count (IPC-298): 48.8%
cell count (IST-MEL1): 62.7%
cell count (LB2518-MEL): 62.1%
cell count (LOXIMVI): 70.2%
cell count (MEL-HO): 75.7%
cell count (MZ2-MEL): 73.3%
cell count (MeWo): 56.1%
cell count (RPMI7951): 50.3%
cell count (RVH-421): 48.9%

Cc1cn(-c2cc(NC(=O)c3ccc(C)c(Nc4nccc(-c5cccnc5)n4)c3)cc(C(F)(F)F)c2)cn1 [nilotinib] + CO[C@H]1C[C@@H]2CC[C@@H](C)[C@@](O)(O2)C(=O)C(=O)N2CCCC[C@H]2C(=O)O[C@H]([C@H](C)C[C@@H]2CC[C@@H](OCCO)[C@H](OC)C2)CC(=O)[C@H](C)/C=C(\C)[C@@H](O)[C@@H](OC)C(=O)[C@H](C)C[C@H](C)/C=C/C=C/C=C/1C [everolimus] (first compound 1 µM, partner dose 0.1 µM)
cell count (G361): 62.1%
cell count (IPC-298): 65.8%
cell count (IST-MEL1): 85.6%
cell count (LB2518-MEL): 67.5%
cell count (LOXIMVI): 96.7%
cell count (MEL-HO): 62.5%
cell count (MZ2-MEL): 49.1%
cell count (MeWo): 58.5%
cell count (RPMI7951): 63.4%
cell count (RVH-421): 77.1%

COc1ccc(C2=N[C@@H](c3ccc(Cl)cc3)[C@@H](c3ccc(Cl)cc3)N2C(=O)N2CCNC(=O)C2)c(OC(C)C)c1 [Nutlin-3] + N#Cc1c(O)c2c(-c3ccc(-c4ccccc4O)cc3)csc2[nH]c1=O [A769662] (first compound 0.5 µM, partner dose 10 µM)
cell count (G361): 81.7%
cell count (IPC-298): 109%
cell count (IST-MEL1): 101%
cell count (LB2518-MEL): 92.2%
cell count (LOXIMVI): 95%
cell count (MEL-HO): 102%
cell count (MZ2-MEL): 104%
cell count (MeWo): 101%
cell count (RPMI7951): 91.2%
cell count (RVH-421): 89.2%

COc1ccc(C2=N[C@@H](c3ccc(Cl)cc3)[C@@H](c3ccc(Cl)cc3)N2C(=O)N2CCNC(=O)C2)c(OC(C)C)c1 [Nutlin-3] + C[C@@H]1CCN(C(=O)CC#N)C[C@@H]1N(C)c1ncnc2[nH]ccc12 [CP690550] (first compound 0.5 µM, partner dose 5 µM)
cell count (G361): 77.5%
cell count (IPC-298): 122%
cell count (IST-MEL1): 94.3%
cell count (LB2518-MEL): 68.1%
cell count (LOXIMVI): 66.6%
cell count (MEL-HO): 102%
cell count (MZ2-MEL): 113%
cell count (MeWo): 82.8%
cell count (RPMI7951): 107%
cell count (RVH-421): 79.9%

COc1ccc(C2=N[C@@H](c3ccc(Cl)cc3)[C@@H](c3ccc(Cl)cc3)N2C(=O)N2CCNC(=O)C2)c(OC(C)C)c1 [Nutlin-3] + Cn1c(=O)n(-c2ccc(C(C)(C)C#N)cc2)c2c3cc(-c4cnc5ccccc5c4)ccc3ncc21 [NVP-BEZ235] (first compound 0.5 µM, partner dose 0.02 µM)
cell count (G361): 44.4%
cell count (IPC-298): 87.9%
cell count (IST-MEL1): 80.7%
cell count (LB2518-MEL): 84.3%
cell count (LOXIMVI): 40.2%
cell count (MEL-HO): 65.8%
cell count (MZ2-MEL): 67.7%
cell count (MeWo): 58.4%
cell count (RPMI7951): 97.4%
cell count (RVH-421): 73.2%

Cc1cn(-c2cc(NC(=O)c3ccc(C)c(Nc4nccc(-c5cccnc5)n4)c3)cc(C(F)(F)F)c2)cn1 [nilotinib] + CO[C@@H]1[C@H](N(C)C(=O)c2ccccc2)C[C@H]2O[C@]1(C)n1c3ccccc3c3c4c(c5c6ccccc6n2c5c31)C(=O)NC4 [Midostaurin] (first compound 1 µM, partner dose 0.4 µM)
cell count (G361): 47.6%
cell count (IPC-298): 54.4%
cell count (IST-MEL1): 81%
cell count (LB2518-MEL): 62.1%
cell count (LOXIMVI): 63%
cell count (MEL-HO): 65.4%
cell count (MZ2-MEL): 53%
cell count (MeWo): 55%
cell count (RPMI7951): 28.8%
cell count (RVH-421): 78.7%

CC(C)C[C@H](NC(=O)[C@H](Cc1ccccc1)NC(=O)c1cnccn1)B(O)O [Bortezomib] + Nc1ncn([C@H]2C[C@H](O)[C@@H](CO)O2)c(=O)n1 [decitabine] (first compound 0.005 µM, partner dose 0.5 µM)
cell count (G361): 1.05%
cell count (IPC-298): 6.84%
cell count (IST-MEL1): 4.45%
cell count (LB2518-MEL): 1.83%
cell count (LOXIMVI): 5.32%
cell count (MEL-HO): 22.3%
cell count (MZ2-MEL): 2.84%
cell count (MeWo): 14.4%
cell count (RPMI7951): 1.11%
cell count (RVH-421): 5.27%

Cc1cc(Nc2cc(N3CCN(C)CC3)nc(/C=C/c3ccccc3)n2)n[nH]1 + CCCCCCCCCCCC1=C(O)C(=O)C=C(O)C1=O [Embelin] (first compound 0.2 µM, partner dose 6 µM)
cell count (G361): 87.1%
cell count (IPC-298): 88.6%
cell count (IST-MEL1): 73.4%
cell count (LB2518-MEL): 73.9%
cell count (LOXIMVI): 85.5%
cell count (MEL-HO): 82%
cell count (MZ2-MEL): 87%
cell count (MeWo): 90.5%
cell count (RPMI7951): 74.3%
cell count (RVH-421): 88.4%

Cn1c(=O)n(-c2ccc(C(C)(C)C#N)cc2)c2c3cc(-c4cnc5ccccc5c4)ccc3ncc21 + C=CCn1c(=O)c2cnc(Nc3ccc(N4CCN(C)CC4)cc3)nc2n1-c1cccc(C(C)(C)O)n1 [MK1775] (first compound 0.02 µM, partner dose 0.1 µM)
cell count (G361): 54.7%
cell count (IPC-298): 60.8%
cell count (IST-MEL1): 72.8%
cell count (LB2518-MEL): 56.8%
cell count (LOXIMVI): 72%
cell count (MEL-HO): 69.8%
cell count (MZ2-MEL): 71.1%
cell count (MeWo): 53.5%
cell count (RPMI7951): 36.8%
cell count (RVH-421): 78.1%
